According to article PMC9911399, “Two distinct binding modes provide the RNA-binding protein RbFox with extraordinary sequence specificity”:
Where a chain is given by its changes, count along the chain named. The list shows a part of the results.

T1: RBFOX1 RRM (Homo sapiens, UniProt Q9NWB1 109-208)
T1 sequence: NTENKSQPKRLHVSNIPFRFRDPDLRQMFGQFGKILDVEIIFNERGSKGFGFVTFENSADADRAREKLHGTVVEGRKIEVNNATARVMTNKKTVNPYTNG

B1: UCAGGAA (DNA:RNA)
RNA: GGGAGACCGGAAUUCAGAUUGUCCUCAGGAAUUAAAUCCCGUCGUAGCCACCA
DNA 1: CAATCTGAATTCCGGTCTCCC
DNA 2: TGGTGGCTACGACGGGATT
B2: GGCAGCC (DNA:RNA)
RNA: B1 RNA with U25G, C26G, A27C, G28A, A30C, A31C
DNA 1: CAATCTGAATTCCGGTCTCCC
DNA 2: TGGTGGCTACGACGGGATT
B3: GCUAGGC (DNA:RNA)
RNA: B1 RNA with U25G, A27U, G28A, A30G, A31C
DNA 1: CAATCTGAATTCCGGTCTCCC
DNA 2: TGGTGGCTACGACGGGATT
B4: UGUAUCG (DNA:RNA)
RNA: B1 RNA with C26G, A27U, G28A, G29U, A30C, A31G
DNA 1: CAATCTGAATTCCGGTCTCCC
DNA 2: TGGTGGCTACGACGGGATT
B5: UGAAGGC (DNA:RNA)
RNA: B1 RNA with C26G, G28A, A30G, A31C
DNA 1: CAATCTGAATTCCGGTCTCCC
DNA 2: TGGTGGCTACGACGGGATT
B6: UCGUAUU (DNA:RNA)
RNA: B1 RNA with A27G, G28U, G29A, A30U, A31U
DNA 1: CAATCTGAATTCCGGTCTCCC
DNA 2: TGGTGGCTACGACGGGATT
B7: ACAUUUU (DNA:RNA)
RNA: B1 RNA with U25A, G28U, G29U, A30U, A31U
DNA 1: CAATCTGAATTCCGGTCTCCC
DNA 2: TGGTGGCTACGACGGGATT
B8: CGAGCUA (DNA:RNA)
RNA: B1 RNA with U25C, C26G, G29C, A30U
DNA 1: CAATCTGAATTCCGGTCTCCC
DNA 2: TGGTGGCTACGACGGGATT
B9: UCGCUGA (DNA:RNA)
RNA: B1 RNA with A27G, G28C, G29U, A30G
DNA 1: CAATCTGAATTCCGGTCTCCC
DNA 2: TGGTGGCTACGACGGGATT
B10: AGUACCU (DNA:RNA)
RNA: GGGAGACCGGAAUUCAGAUUGUCCAGUACCUUUAAAUCCCGUCGUAGCCACCA
DNA 1: CAATCTGAATTCCGGTCTCCC
DNA 2: TGGTGGCTACGACGGGATT
B11: AGGGACC (DNA:RNA)
RNA: B10 RNA with U27G, A28G, C29A, U31C
DNA 1: CAATCTGAATTCCGGTCTCCC
DNA 2: TGGTGGCTACGACGGGATT
B12: UUUGCUC (DNA:RNA)
RNA: B10 RNA with A25U, G26U, A28G, C30U, U31C
DNA 1: CAATCTGAATTCCGGTCTCCC
DNA 2: TGGTGGCTACGACGGGATT
B13: UAGACGG (DNA:RNA)
RNA: B10 RNA with A25U, G26A, U27G, C30G, U31G
DNA 1: CAATCTGAATTCCGGTCTCCC
DNA 2: TGGTGGCTACGACGGGATT
B14: GUUCGCU (DNA:RNA)
RNA: B10 RNA with A25G, G26U, A28C, C29G
DNA 1: CAATCTGAATTCCGGTCTCCC
DNA 2: TGGTGGCTACGACGGGATT
B15: CGAAGAC (DNA:RNA)
RNA: B1 RNA with U25C, C26G, G28A, A31C
DNA 1: CAATCTGAATTCCGGTCTCCC
DNA 2: TGGTGGCTACGACGGGATT
B16: UGUCACU (DNA:RNA)
RNA: B10 RNA with A25U, A28C, C29A
DNA 1: CAATCTGAATTCCGGTCTCCC
DNA 2: TGGTGGCTACGACGGGATT
B17: AAUCAGC (DNA:RNA)
RNA: B10 RNA with G26A, A28C, C29A, C30G, U31C
DNA 1: CAATCTGAATTCCGGTCTCCC
DNA 2: TGGTGGCTACGACGGGATT
B18: CACACGA (DNA:RNA)
RNA: B10 RNA with A25C, G26A, U27C, C30G, U31A
DNA 1: CAATCTGAATTCCGGTCTCCC
DNA 2: TGGTGGCTACGACGGGATT
B19: AAGUCGU (DNA:RNA)
RNA: B10 RNA with G26A, U27G, A28U, C30G
DNA 1: CAATCTGAATTCCGGTCTCCC
DNA 2: TGGTGGCTACGACGGGATT
B20: GAGCCUA (DNA:RNA)
RNA: B10 RNA with A25G, G26A, U27G, A28C, C30U, U31A
DNA 1: CAATCTGAATTCCGGTCTCCC
DNA 2: TGGTGGCTACGACGGGATT
B21: GACAUAA (DNA:RNA)
RNA: B1 RNA with U25G, C26A, A27C, G28A, G29U
DNA 1: CAATCTGAATTCCGGTCTCCC
DNA 2: TGGTGGCTACGACGGGATT
B22: ACGUGGA (DNA:RNA)
RNA: B1 RNA with U25A, A27G, G28U, A30G
DNA 1: CAATCTGAATTCCGGTCTCCC
DNA 2: TGGTGGCTACGACGGGATT
B23: GGCGGUA (DNA:RNA)
RNA: B1 RNA with U25G, C26G, A27C, A30U
DNA 1: CAATCTGAATTCCGGTCTCCC
DNA 2: TGGTGGCTACGACGGGATT
B24: UGUCAAG (DNA:RNA)
RNA: B10 RNA with A25U, A28C, C29A, C30A, U31G
DNA 1: CAATCTGAATTCCGGTCTCCC
DNA 2: TGGTGGCTACGACGGGATT
B25: UACUUGU (DNA:RNA)
RNA: B10 RNA with A25U, G26A, U27C, A28U, C29U, C30G
DNA 1: CAATCTGAATTCCGGTCTCCC
DNA 2: TGGTGGCTACGACGGGATT
B26: UGUUGGG (DNA:RNA)
RNA: B10 RNA with A25U, A28U, C29G, C30G, U31G
DNA 1: CAATCTGAATTCCGGTCTCCC
DNA 2: TGGTGGCTACGACGGGATT
B27: ACGAUCG (DNA:RNA)
RNA: B10 RNA with G26C, U27G, C29U, U31G
DNA 1: CAATCTGAATTCCGGTCTCCC
DNA 2: TGGTGGCTACGACGGGATT
B28: GAGGGAC (DNA:RNA)
RNA: B1 RNA with U25G, C26A, A27G, A31C
DNA 1: CAATCTGAATTCCGGTCTCCC
DNA 2: TGGTGGCTACGACGGGATT
B29: GGAUGUC (DNA:RNA)
RNA: B1 RNA with U25G, C26G, G28U, A30U, A31C
DNA 1: CAATCTGAATTCCGGTCTCCC
DNA 2: TGGTGGCTACGACGGGATT
B30: ACGCAUG (DNA:RNA)
RNA: B10 RNA with G26C, U27G, A28C, C29A, C30U, U31G
DNA 1: CAATCTGAATTCCGGTCTCCC
DNA 2: TGGTGGCTACGACGGGATT
B31: AAGUAAU (DNA:RNA)
RNA: B10 RNA with G26A, U27G, A28U, C29A, C30A
DNA 1: CAATCTGAATTCCGGTCTCCC
DNA 2: TGGTGGCTACGACGGGATT

Target: T1, RBFOX1 RRM
Test: EMSA; HiTS-Eq, 1 nM pool, 10 min; buffer printed only for the single-RNA assays: 10 mM Tris pH 7.5, 150 mM NaCl, 3.4 mM EDTA, 0.001% NP-40, 30 C
Conditions: tags: His6 N-terminal (pET28a); label: 5' 32P
How it was run: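 Purified RbFox RRM, wild type or mutant, was incubated for 10 min in 50 µL with 1 nM of a 5′-radiolabelled RNA pool carrying 7 randomized nucleotides, whose flanks were annealed to DNA oligonucleotides, over a series of increasing protein concentrations. Unbound RNA was resolved on 8% native PAGE, cut out, reverse-transcribed, barcoded by PCR and sequenced on an Illumina HiSeq 2500. Relative association constants were derived from changes in read counts for each RNA species versus the control reaction and normalised to the cognate motif.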

Binder	binding signal
B1	0.00853 KA relative to UGCAUGU
B2	0.00719 KA relative to UGCAUGU
B3	0.0131 KA relative to UGCAUGU
B4	0.0133 KA relative to UGCAUGU
B5	0.0192 KA relative to UGCAUGU
B6	0.00649 KA relative to UGCAUGU
B7	0.00232 KA relative to UGCAUGU
B8	0.00585 KA relative to UGCAUGU
B9	0.0148 KA relative to UGCAUGU
B10	0.00268 KA relative to UGCAUGU
B11	0.0155 KA relative to UGCAUGU
B12	0.03 KA relative to UGCAUGU
B13	0.00945 KA relative to UGCAUGU
B14	0.0193 KA relative to UGCAUGU
B15	0.00991 KA relative to UGCAUGU
B16	0.0131 KA relative to UGCAUGU

Binder	binding signal
B17	0.00434 KA relative to UGCAUGU
B18	0.00123 KA relative to UGCAUGU
B19	0.00628 KA relative to UGCAUGU
B20	0.00398 KA relative to UGCAUGU
B21	0.00169 KA relative to UGCAUGU
B22	0.00677 KA relative to UGCAUGU
B23	0.0148 KA relative to UGCAUGU
B24	0.0144 KA relative to UGCAUGU
B25	0.0167 KA relative to UGCAUGU
B26	0.00877 KA relative to UGCAUGU
B27	0.00868 KA relative to UGCAUGU
B28	0.0115 KA relative to UGCAUGU
B29	0.027 KA relative to UGCAUGU
B30	0.697 KA relative to UGCAUGU
B31	0.0019 KA relative to UGCAUGU
